Measurements as given in the antibiotic and cytotoxicity screens of Wong et al. (2023).
This is one part of the list.

Tested on: HepG2
Experiment: cytotoxicity call (relative viability < 0.9)
Conditions: 10 µM

SMILES	cytotoxicity call
C[C@@H]1CN([C@H](C)CO)C(=O)c2cc(NC(=O)Cc3ccccc3)ccc2O[C@@H](C)CCCCO[C@H]1CN(C)C(=O)CCC(F)(F)F	inactive
Cc1noc(C)c1NC(=O)N(C)C[C@@H]1Oc2ncc(Br)cc2C(=O)N([C@@H](C)CO)C[C@H]1C	inactive
C[C@@H]1CN([C@@H](C)CO)C(=O)Cc2cc(NC(=O)Nc3ccc(C(F)(F)F)cc3)ccc2O[C@@H]1CN(C)C(=O)Nc1ccccc1	active
COc1ccc(S(=O)(=O)Nc2ccc3c(c2)C(=O)N(C)C[C@@H](OC)[C@H](C)CN(C)[C@H](C)CO3)cc1	inactive
COc1ccc(S(=O)(=O)N(C)C[C@H]2OCCCC[C@H](C)Oc3ccc(NC(=O)NC4CCCCC4)cc3C(=O)N([C@H](C)CO)C[C@H]2C)cc1	inactive
Cc1cc(C(=O)Nc2cccc3c2O[C@@H](CN(C)S(=O)(=O)c2ccc(F)cc2)[C@@H](C)CN([C@H](C)CO)C3=O)n(C)n1	inactive
COc1ccccc1C(=O)Nc1ccc2c(c1)C(=O)N(C)[C@H]1CC[C@@H](CC(=O)NCCc3ccncc3)O[C@@H]1CO2	inactive
CCOC(=O)c1c(CNCCN(CC)CC)n(-c2ccccc2)c2cc(Br)c(OC)cc12	active
CC(=O)N1CC(=O)N(c2cnn(C)c2)C[C@]12CCN(C(=O)c1cnc(C)cn1)C2	inactive
O=C1OCc2cc(-n3cnnn3)ccc21	inactive
O=C1CC[NH][Zn][O]C(=O)[C@H](Cc2cnc[nH]2)N1	inactive
CCN(CC)c1ccc(N2CC=C[C@@]34O[C@@H]5/C=C\CCCOC(=O)[C@@H]5[C@H]3C(=O)N(CCO)[C@@H]4C2=O)cc1	inactive
C[C@H]1CN([C@@H](C)CO)C(=O)c2c(c3ccccc3n2C)-c2ccccc2CO[C@@H]1CN(C)CC1CCCCC1	active
C[C@H]1CN([C@@H](C)CO)C(=O)c2cc(-c3cccc(C#N)c3)cnc2O[C@@H]1CN(C)C(=O)c1cnccn1	inactive
C[C@H]1CCCCO[C@H](CN(C)Cc2ccc3c(c2)OCO3)[C@@H](C)CN([C@@H](C)CO)C(=O)c2cc(NS(=O)(=O)c3ccc(Cl)cc3)ccc2O1	inactive
C[C@@H]1CN([C@H](C)CO)C(=O)c2cc(NC(=O)Nc3cccc4ccccc34)ccc2O[C@@H]1CN(C)Cc1ccc(C(=O)Nc2ccccc2N)cc1	active
C[C@H]1CN([C@@H](C)CO)C(=O)Cc2cc(NC(=O)Cc3ccccc3)ccc2O[C@H]1CN(C)S(=O)(=O)c1cn(C)cn1	inactive
C[C@@H]1CN([C@@H](C)CO)C(=O)CCCn2cc(nn2)CO[C@H]1CN(C)S(=O)(=O)c1ccc(-c2ccccc2)cc1	inactive
C[C@H](CO)N1C[C@H](C)[C@@H](CN(C)S(=O)(=O)c2ccccc2)Oc2ccc(NS(=O)(=O)c3ccc(F)cc3)cc2C1=O	inactive
C[C@H](CO)N1C[C@H](C)[C@H](CN(C)C(=O)Nc2ccc(C(F)(F)F)cc2)OCCCC[C@H](C)Oc2ccc(NC(=O)Nc3ccc(C(F)(F)F)cc3)cc2C1=O	inactive

SMILES	cytotoxicity call
COc1cc(C)c2c(=O)c(-c3ccccc3)coc2c1	inactive
COc1ccc(CN(C)C[C@H]2Oc3ccc(NS(C)(=O)=O)cc3CC(=O)N([C@H](C)CO)C[C@@H]2C)cc1	inactive
C[C@@H]1CN([C@@H](C)CO)C(=O)c2cc(NS(=O)(=O)c3cccs3)ccc2O[C@H]1CN(C)CC1CC1	inactive
C[C@@H]1CCCCO[C@H](CN(C)Cc2ccc(Cl)c(Cl)c2)[C@@H](C)CN([C@H](C)CO)C(=O)c2cc(NC(=O)Nc3cccc4ccccc34)ccc2O1	inactive
Clc1ccc(C2=Nc3cccc4cccc(c34)N2)cc1	inactive
CC#CCOC(=O)C1=CCCN(C)C1	inactive
CN(C)CC(=O)N1[C@@H]2Cn3c(ccc(-c4ccncc4)c3=O)[C@H]1[C@@H](C(=O)NC1CCC1)[C@@H]2CO	inactive
CCC1(c2ccccc2)NC(=O)N(C)C1=O (stereo not given)	inactive
O=C(NC1CCCCC1)[C@@H]1C(c2ccc(Cl)cc2)=C(S(=O)(=O)c2ccccc2)C(=O)N1Cc1ccc(-c2ccccc2)cc1	inactive
C[C@@H]1CN([C@H](C)CO)C(=O)c2c(c3ccccc3n2C)-c2ccccc2CO[C@H]1CN(C)C(=O)Nc1cccc(F)c1	inactive
N#CCC(=O)NN	inactive
Cc1ccc(S(=O)(=O)Nc2ccc3c(c2)C(=O)N([C@@H](C)CO)C[C@H](C)[C@@H](CN(C)C(=O)NC2CCCCC2)OCCCC[C@H](C)O3)cc1	active
C[C@@H]1CN([C@H](C)CO)C(=O)c2cc(NC(=O)Nc3cccc4ccccc34)ccc2O[C@@H](C)CCCCO[C@H]1CN(C)C	inactive
COc1ccc(NC(=O)N(C)C[C@H]2Oc3ccc(NC(=O)Nc4cccc5ccccc45)cc3C(=O)N([C@H](C)CO)C[C@H]2C)cc1	inactive
CN(C)C(=O)C[C@H]1CC[C@H](NC(=O)C2CC2)[C@H](CO)O1	inactive
N/C(=N/O)c1cnc2n(c1=O)CCS2	inactive
COc1cccc(NC(=O)C[C@@H]2CC[C@H]3[C@@H](COc4ccc(NC(=O)C5CCOCC5)cc4C(=O)N3C)O2)c1	inactive
CCCC#Cc1cnc2c(c1)C(=O)N([C@@H](C)CO)C[C@H](C)[C@@H](CN(C)S(=O)(=O)c1cn(C)cn1)O2	inactive
CC(C)NC(=O)N(C)C[C@H]1Oc2ccc(NS(=O)(=O)c3ccc(F)cc3)cc2C(=O)N([C@H](C)CO)C[C@H]1C	inactive
C[C@H]1CCCCO[C@H](CN(C)Cc2ccc(C(F)(F)F)cc2)[C@@H](C)CN([C@@H](C)CO)C(=O)c2cc(NS(=O)(=O)c3cccs3)ccc2O1	inactive
